The values that follow come from patent US20220331391A1 (priority 2021, published 2022).

Structures are written as SMILES.

With `C[C@@H]([C@H](N)C(=O)N[C@H](C(=O)O)[C@H]1O[C@@H](n2ccc(=O)[nH]c2=O)[C@H](O)[C@@H]1O)[C@H](O)c1ccc(O)cn1` [nikZ, Nikkomycin Z], the “Stability in drinking water” value (drinking water) is reported as “stable”. Besides, the “Degradation of refrigerated solution of nikZ” value (refrigerated solution used for treating the mice, time period of months) is “minimal degradation”.
